According to publication PMC6155134:
These are yes or no findings as the source states them, for the method shown. In cells and extracts the contact can be indirect. Some entries that bind do so weakly or less than the wild type.

Sequences of proteins named here, by UniProt entry; tags and fusion partners are left off.
UniProt O15409: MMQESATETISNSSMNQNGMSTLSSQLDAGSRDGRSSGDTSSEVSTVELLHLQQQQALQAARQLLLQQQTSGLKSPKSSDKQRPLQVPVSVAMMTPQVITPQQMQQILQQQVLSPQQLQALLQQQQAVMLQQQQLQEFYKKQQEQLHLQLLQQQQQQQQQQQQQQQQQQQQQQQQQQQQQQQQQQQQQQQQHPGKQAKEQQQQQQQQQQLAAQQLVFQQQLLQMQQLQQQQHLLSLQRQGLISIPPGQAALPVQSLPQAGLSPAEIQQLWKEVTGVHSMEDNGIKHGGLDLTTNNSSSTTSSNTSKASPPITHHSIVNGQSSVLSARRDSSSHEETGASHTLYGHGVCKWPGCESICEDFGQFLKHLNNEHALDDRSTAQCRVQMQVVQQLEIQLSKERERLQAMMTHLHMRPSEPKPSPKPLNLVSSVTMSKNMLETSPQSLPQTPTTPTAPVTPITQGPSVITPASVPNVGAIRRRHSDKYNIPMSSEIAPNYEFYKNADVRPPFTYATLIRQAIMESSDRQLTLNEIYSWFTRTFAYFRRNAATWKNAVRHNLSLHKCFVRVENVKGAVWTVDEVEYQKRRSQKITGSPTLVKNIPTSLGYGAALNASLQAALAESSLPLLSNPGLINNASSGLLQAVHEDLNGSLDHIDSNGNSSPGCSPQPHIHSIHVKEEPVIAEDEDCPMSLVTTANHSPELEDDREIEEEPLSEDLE

T1: BCL11A-L N-terminal deletion, residues 629-773 (human) (UniProt Q9H165)
T1 sequence: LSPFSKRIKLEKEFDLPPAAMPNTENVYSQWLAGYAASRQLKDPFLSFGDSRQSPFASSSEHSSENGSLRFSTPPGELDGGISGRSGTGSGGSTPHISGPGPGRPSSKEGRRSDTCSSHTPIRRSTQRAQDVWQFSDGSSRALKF

T2: TBR1 (T-box brain, 1), wild type (human) (UniProt Q16650)
T2 sequence: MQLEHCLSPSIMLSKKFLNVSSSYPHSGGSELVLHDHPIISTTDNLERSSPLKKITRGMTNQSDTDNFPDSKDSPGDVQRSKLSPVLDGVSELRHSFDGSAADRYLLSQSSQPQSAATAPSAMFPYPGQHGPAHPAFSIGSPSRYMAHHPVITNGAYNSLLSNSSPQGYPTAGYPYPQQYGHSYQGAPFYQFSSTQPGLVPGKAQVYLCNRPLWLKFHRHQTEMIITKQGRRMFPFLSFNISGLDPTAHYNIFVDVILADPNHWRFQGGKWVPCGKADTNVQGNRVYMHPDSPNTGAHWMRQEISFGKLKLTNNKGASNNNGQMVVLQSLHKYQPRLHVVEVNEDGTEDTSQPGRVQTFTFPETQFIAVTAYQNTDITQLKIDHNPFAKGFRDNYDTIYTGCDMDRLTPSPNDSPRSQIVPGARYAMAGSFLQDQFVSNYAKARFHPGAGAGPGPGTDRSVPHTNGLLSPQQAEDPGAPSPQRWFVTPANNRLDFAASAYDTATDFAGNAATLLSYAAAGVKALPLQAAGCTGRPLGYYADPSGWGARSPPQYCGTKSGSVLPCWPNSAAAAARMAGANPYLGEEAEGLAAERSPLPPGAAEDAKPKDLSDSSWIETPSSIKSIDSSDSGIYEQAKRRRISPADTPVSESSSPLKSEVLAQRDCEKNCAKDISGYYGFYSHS

T3: FOXP1 (human) (UniProt Q9H334)
T3 sequence: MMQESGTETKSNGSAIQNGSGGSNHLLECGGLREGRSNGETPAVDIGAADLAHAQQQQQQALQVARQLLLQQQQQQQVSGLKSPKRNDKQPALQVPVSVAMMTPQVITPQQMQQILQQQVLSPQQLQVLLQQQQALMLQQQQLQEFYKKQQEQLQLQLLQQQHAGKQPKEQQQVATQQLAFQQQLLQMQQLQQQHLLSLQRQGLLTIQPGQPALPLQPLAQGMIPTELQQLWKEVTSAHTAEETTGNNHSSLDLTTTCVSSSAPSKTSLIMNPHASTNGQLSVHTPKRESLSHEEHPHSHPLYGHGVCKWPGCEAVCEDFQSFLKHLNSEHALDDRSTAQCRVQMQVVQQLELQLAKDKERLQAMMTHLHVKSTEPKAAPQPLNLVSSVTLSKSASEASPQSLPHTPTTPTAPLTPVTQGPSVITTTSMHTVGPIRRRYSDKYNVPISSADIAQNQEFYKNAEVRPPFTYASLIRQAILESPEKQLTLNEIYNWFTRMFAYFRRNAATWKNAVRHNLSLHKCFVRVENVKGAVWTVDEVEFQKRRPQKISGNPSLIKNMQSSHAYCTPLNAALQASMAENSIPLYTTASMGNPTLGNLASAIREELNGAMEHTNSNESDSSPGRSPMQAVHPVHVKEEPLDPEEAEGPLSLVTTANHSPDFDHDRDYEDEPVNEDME


Key:
Assay in all cases: FRET or BRET; BRET in live HEK293 cells transfected with equimolar YFP and Rluc fusion constructs; read 48 h after transfection, after 4 h at 37 °C with 60 µM EnduRen; corrected BRET ratio, YFP-NLS and Rluc-NLS as control proteins
BCL11A-L p.H66Q (human) = BCL11A-L p.H66Q (human) (UniProt Q9H165)
BCL11A-L p.T47P (human) = BCL11A-L p.T47P (human) (UniProt Q9H165)
[1] = target: T1, BCL11A-L N-terminal deletion, residues 629-773 (human)
[2] = target: BCL11A-L N-terminal deletion, residues 244-773 (human) (UniProt Q9H165)
BCL11A-L p.C48F (human) = BCL11A-L p.C48F (human) (UniProt Q9H165)
[3] = target: BCL11A-L (773 amino acids) (human) (UniProt Q9H165)
[4] = target: T2, TBR1 (T-box brain, 1), wild type (human)
TBR1 p.W271R (human) = TBR1 p.W271R (human) (UniProt Q16650)
FOXP1 (human) = target: T3, FOXP1 (human)
FOXP2 (human) = FOXP2 (human) (UniProt O15409)
TBR1 p.W271C (human) = TBR1 p.W271C (human) (UniProt Q16650)

binding (BCL11A-L p.H66Q (human)) | binding (BCL11A-L p.T47P (human)) | binding [1] | binding [2] | binding (BCL11A-L p.C48F (human)) | binding [3] | binding [4] | binding (TBR1 p.W271R (human)) | binding (FOXP1 (human)) | binding (FOXP2 (human)) | binding (TBR1 p.W271C (human)) | Binder
binds | binds | binds | binds | binds | binds | binds | – | – | – | – | TBR1 (T-box brain, 1), wild type (protein, UniProt Q16650-1 1-682) MQLEHCLSPSIMLSKKFLNVSSSYPHSGGSELVLHDHPIISTTDNLERSSPLKKITRGMTNQSDTDNFPDSKDSPGDVQRSKLSPVLDGVSELRHSFDGSAADRYLLSQSSQPQSAATAPSAMFPYPGQHGPAHPAFSIGSPSRYMAHHPVITNGAYNSLLSNSSPQGYPTAGYPYPQQYGHSYQGAPFYQFSSTQPGLVPGKAQVYLCNRPLWLKFHRHQTEMIITKQGRRMFPFLSFNISGLDPTAHYNIFVDVILADPNHWRFQGGKWVPCGKADTNVQGNRVYMHPDSPNTGAHWMRQEISFGKLKLTNNKGASNNNGQMVVLQSLHKYQPRLHVVEVNEDGTEDTSQPGRVQTFTFPETQFIAVTAYQNTDITQLKIDHNPFAKGFRDNYDTIYTGCDMDRLTPSPNDSPRSQIVPGARYAMAGSFLQDQFVSNYAKARFHPGAGAGPGPGTDRSVPHTNGLLSPQQAEDPGAPSPQRWFVTPANNRLDFAASAYDTATDFAGNAATLLSYAAAGVKALPLQAAGCTGRPLGYYADPSGWGARSPPQYCGTKSGSVLPCWPNSAAAAARMAGANPYLGEEAEGLAAERSPLPPGAAEDAKPKDLSDSSWIETPSSIKSIDSSDSGIYEQAKRRRISPADTPVSESSSPLKSEVLAQRDCEKNCAKDISGYYGFYSHS
– | – | – | – | – | binds | binds | binds | binds | binds | – | TBR1 p.W271R (protein, UniProt Q16650-1 1-682) MQLEHCLSPSIMLSKKFLNVSSSYPHSGGSELVLHDHPIISTTDNLERSSPLKKITRGMTNQSDTDNFPDSKDSPGDVQRSKLSPVLDGVSELRHSFDGSAADRYLLSQSSQPQSAATAPSAMFPYPGQHGPAHPAFSIGSPSRYMAHHPVITNGAYNSLLSNSSPQGYPTAGYPYPQQYGHSYQGAPFYQFSSTQPGLVPGKAQVYLCNRPLWLKFHRHQTEMIITKQGRRMFPFLSFNISGLDPTAHYNIFVDVILADPNHWRFQGGKRVPCGKADTNVQGNRVYMHPDSPNTGAHWMRQEISFGKLKLTNNKGASNNNGQMVVLQSLHKYQPRLHVVEVNEDGTEDTSQPGRVQTFTFPETQFIAVTAYQNTDITQLKIDHNPFAKGFRDNYDTIYTGCDMDRLTPSPNDSPRSQIVPGARYAMAGSFLQDQFVSNYAKARFHPGAGAGPGPGTDRSVPHTNGLLSPQQAEDPGAPSPQRWFVTPANNRLDFAASAYDTATDFAGNAATLLSYAAAGVKALPLQAAGCTGRPLGYYADPSGWGARSPPQYCGTKSGSVLPCWPNSAAAAARMAGANPYLGEEAEGLAAERSPLPPGAAEDAKPKDLSDSSWIETPSSIKSIDSSDSGIYEQAKRRRISPADTPVSESSSPLKSEVLAQRDCEKNCAKDISGYYGFYSHS
– | – | – | – | – | binds | binds | – | no binding | no binding | binds | TBR1 p.W271C (protein, UniProt Q16650-1 1-682) MQLEHCLSPSIMLSKKFLNVSSSYPHSGGSELVLHDHPIISTTDNLERSSPLKKITRGMTNQSDTDNFPDSKDSPGDVQRSKLSPVLDGVSELRHSFDGSAADRYLLSQSSQPQSAATAPSAMFPYPGQHGPAHPAFSIGSPSRYMAHHPVITNGAYNSLLSNSSPQGYPTAGYPYPQQYGHSYQGAPFYQFSSTQPGLVPGKAQVYLCNRPLWLKFHRHQTEMIITKQGRRMFPFLSFNISGLDPTAHYNIFVDVILADPNHWRFQGGKCVPCGKADTNVQGNRVYMHPDSPNTGAHWMRQEISFGKLKLTNNKGASNNNGQMVVLQSLHKYQPRLHVVEVNEDGTEDTSQPGRVQTFTFPETQFIAVTAYQNTDITQLKIDHNPFAKGFRDNYDTIYTGCDMDRLTPSPNDSPRSQIVPGARYAMAGSFLQDQFVSNYAKARFHPGAGAGPGPGTDRSVPHTNGLLSPQQAEDPGAPSPQRWFVTPANNRLDFAASAYDTATDFAGNAATLLSYAAAGVKALPLQAAGCTGRPLGYYADPSGWGARSPPQYCGTKSGSVLPCWPNSAAAAARMAGANPYLGEEAEGLAAERSPLPPGAAEDAKPKDLSDSSWIETPSSIKSIDSSDSGIYEQAKRRRISPADTPVSESSSPLKSEVLAQRDCEKNCAKDISGYYGFYSHS
